From the supplement of paper PMC7125110 come the findings set out here.

± gives the standard error. This sample is rich in variants without activity. A value given as a limit tells only on which side of the number the result lay.

B1: glmS ribozyme (parent)
chain: AUAAAAGCGCCAGAACUACAGAAAUGUAGUUGACGAGGAGGAGGUUUAUCGAAUUUUCGGCGGAUGCCUCCAAA

What all share (details): with glucosamine-6-phosphate
In data set [1] the parent is B1. In words: self-cleavage kobs at 40 uM GlcN6P; higher = faster cleavage; RNA array. The procedure, abridged: (§1)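 Tracking of barcoded ribozyme variants used a hybridised Cy3 probe at 37 °C, after in situ transcription by E. coli RNA polymerase on sequenced MiSeq chips. The flowed solution held 40 μM to 10 mM glucosamine-6-phosphate in HEPES/KCl/Mg(OAc)2 buffer, and imaging ran over ~14 h. kobs was taken from exponential decay fits of normalised per-tile medians, and kcat and KM from weighted Michaelis–Menten fits.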

Data set [2] covers variants of B1. The data set is described as follows: self-cleavage kobs at 10000 uM GlcN6P; higher = faster cleavage; RNA array. The procedure, abridged:
as §1

Data set [3] covers variants of B1. In words: self-cleavage kobs at 640 uM GlcN6P; higher = faster cleavage; RNA array. The essentials:
as §1

Variants of B1 are the subject of data set [4]. In words: self-cleavage kobs at 160 uM GlcN6P; higher = faster cleavage; RNA array. The essentials: as §1
Variants of B1 are the subject of data set [5]. The data set is described as follows: self-cleavage kobs at 2500 uM GlcN6P; higher = faster cleavage; RNA array. The essentials: as §1

AUAAAAGCGCCAGAACUACAGAAAUGUAGUUGACGAGGAUGAGGUUUAUCUAAUUUUCGGCAGAUGCUUCCAAA: in data set [1], the “self-cleavage kobs at 40 uM GlcN6P” value is below 1e-05 s⁻¹. Besides, the “self-cleavage kobs at 10000 uM GlcN6P” value in data set [2] is below 1e-05 s⁻¹.

AUAAAAGCGCCAGAACUACAGAAAUGUAGUUGACGAGGAGUAGGUUUAUAGAAUUUUCGGCGGAUGCCUCCAAA: the “self-cleavage kobs at 40 uM GlcN6P” value in data set [1] is below 1e-05 s⁻¹. Also, the “self-cleavage kobs at 640 uM GlcN6P” value in data set [3] is below 1e-05 s⁻¹. For the same variant, the “self-cleavage kobs at 160 uM GlcN6P” value in data set [4] is below 1e-05 s⁻¹. Further, in data set [5], the “self-cleavage kobs at 2500 uM GlcN6P” value is below 1e-05 s⁻¹. The “self-cleavage kobs at 10000 uM GlcN6P” value in data set [2] is below 1e-05 s⁻¹.

As to AUAAAAGCGCCAGAACUACAGAAAUGUAGUUGACGAGGAGAAGGUUUGUCGAAUUUUCGGCGGAUGCCUCCAAA, the “self-cleavage kobs at 40 uM GlcN6P” value in data set [1] was below 1e-05 s⁻¹. In data set [3], the “self-cleavage kobs at 640 uM GlcN6P” value was below 1e-05 s⁻¹. Moreover, the “self-cleavage kobs at 160 uM GlcN6P” value in data set [4] is below 1e-05 s⁻¹. Further, the “self-cleavage kobs at 2500 uM GlcN6P” value in data set [5] is below 1e-05 s⁻¹.

For AUAAAAGCGCCAGAACUACAGAAAUGUAGUUGACGAGGAGGCGGUUUAUCGAGUUUUCGGCGGAUGCCUCCAAA, the “self-cleavage kobs at 40 uM GlcN6P” value in data set [1] was below 1e-05 s⁻¹. The “self-cleavage kobs at 160 uM GlcN6P” value in data set [4] is below 1e-05 s⁻¹.

AUAAAAGCGCCAGAACUACAGAAAUGUAGUUGACGAGGAGGCGGUUUAUCGCAUUUUCGGCGGAUGCCUCCAAA: the “self-cleavage kobs at 40 uM GlcN6P” value in data set [1] is below 1e-05 s⁻¹. Further, the “self-cleavage kobs at 640 uM GlcN6P” value in data set [3] is below 1e-05 s⁻¹. The “self-cleavage kobs at 2500 uM GlcN6P” value in data set [5] was below 1e-05 s⁻¹.

With AUAAAAGCGCCAGAACUACAGAAAUGUAGUUGACGAGGAUGAGGUUUAUCGAAUGUUCGGCGGAUGCCUCCAAA, the “self-cleavage kobs at 40 uM GlcN6P” value in data set [1] worked out at 0.000102 ± 1.4e-05 s⁻¹. Moreover, in data set [3], the “self-cleavage kobs at 640 uM GlcN6P” value is 0.000543 ± 9.9e-05 s⁻¹. Further, the “self-cleavage kobs at 160 uM GlcN6P” value in data set [4] is 0.000149 ± 2.2e-05 s⁻¹. The “self-cleavage kobs at 2500 uM GlcN6P” value in data set [5] turned out to be 0.00142 ± 0.00023 s⁻¹. For the same variant, the “self-cleavage kobs at 10000 uM GlcN6P” value in data set [2] was 0.00228 ± 0.00046 s⁻¹.

Turning to AUAAAAGCGCCAGAACUACAGAAAUGUAGUUGACGAGGAUGAGGUUUGUCGAAUUUUCGGCGGAUGCCUACAAA, the “self-cleavage kobs at 40 uM GlcN6P” value in data set [1] was below 1e-05 s⁻¹. In data set [2], the “self-cleavage kobs at 10000 uM GlcN6P” value worked out at 3.93e-05 ± 9.6e-06 s⁻¹.

Turning to AUAAAAGCGCCAGAACUACAGAAAUGUAGUUGACGAGGAGCAGGUUUAUCGAAUUUUCCCCGGAUGCCUCCAAA, in data set [1], the “self-cleavage kobs at 40 uM GlcN6P” value was below 1e-05 s⁻¹. Also, in data set [3], the “self-cleavage kobs at 640 uM GlcN6P” value was below 1e-05 s⁻¹. Besides, the “self-cleavage kobs at 2500 uM GlcN6P” value in data set [5] was below 1e-05 s⁻¹.

With AUAAAAGCGCCAGAACUACAGAAAUGUAGUUGACGAGGAGAAGGUUUAUCGAAUUUUCGGCGGAUGCCGCCAAA, the “self-cleavage kobs at 40 uM GlcN6P” value in data set [1] was below 1e-05 s⁻¹. Besides, in data set [3], the “self-cleavage kobs at 640 uM GlcN6P” value is below 1e-05 s⁻¹. Also, the “self-cleavage kobs at 160 uM GlcN6P” value in data set [4] was below 1e-05 s⁻¹. Also, the “self-cleavage kobs at 10000 uM GlcN6P” value in data set [2] was below 1e-05 s⁻¹.

Consider AUAAAAGCGCCAGAACUACAGAAAUGUAGUUGACGAGGACGAGGUUAAUCGAAUUUUCGGUGGAUGCCUCCAAA, for which the “self-cleavage kobs at 40 uM GlcN6P” value in data set [1] is below 1e-05 s⁻¹.

As for AUAAAAGCGCCAGAACUACAGAAAUGUAGUUGACGAGGACGAGGUUUACCGAAUUUUCGGCGGAUGCCUCCAAA, the “self-cleavage kobs at 40 uM GlcN6P” value in data set [1] is below 1e-05 s⁻¹. In data set [3], the “self-cleavage kobs at 640 uM GlcN6P” value is below 1e-05 s⁻¹. Besides, the “self-cleavage kobs at 2500 uM GlcN6P” value in data set [5] was below 1e-05 s⁻¹. Besides, in data set [2], the “self-cleavage kobs at 10000 uM GlcN6P” value was below 1e-05 s⁻¹.

Consider AUAAAAGCGCCAGAACUACAGAAAUGUAGUUGACGAGGAGGCGGUUUAUCGAAUUUUCGACGGAUGCCUCCAAA, for which, in data set [1], the “self-cleavage kobs at 40 uM GlcN6P” value is below 1e-05 s⁻¹. Besides, the “self-cleavage kobs at 640 uM GlcN6P” value in data set [3] is below 1e-05 s⁻¹. In addition, the “self-cleavage kobs at 160 uM GlcN6P” value in data set [4] was below 1e-05 s⁻¹. Also, in data set [5], the “self-cleavage kobs at 2500 uM GlcN6P” value was below 1e-05 s⁻¹. Further, in data set [2], the “self-cleavage kobs at 10000 uM GlcN6P” value was below 1e-05 s⁻¹.
